# Measured values from the supplement of paper PMC10681739.
# ± gives the standard deviation of the averaged measurements. The full ranking holds about 4,000 sequences; the median of “arbitrary fluorescence units” is about 830, and the highest 2% start at about 6,500. Most of the strongest results are missing from this list.
# Biological target: RUNX1 (UniProt Q01196)
# Assay: RUNX1 binding intensity (PBM fluorescence), RUNX1 alone (arbitrary fluorescence units); higher = stronger binding
# Settings: RUNX1 concentration 2 nM; ETS1 concentration 0 nM
# Procedure: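 gcPBM on 36-bp genomic-derived probes (partner site mutated) containing one RUNX1 site and no ETS1 site. Recombinant human RUNX1 (2 nM) was incubated alone or with ETS1 (25 nM) and detected by anti-RUNX1 antibody fluorescence. Values are medians over 4 replicate spots (not normalised). The probes sit in constant array flanks that are not printed.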
# 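Note: Full-length recombinant human RUNX1 bound to double-stranded DNA microarray spots, detected with an Alexa488-labelled secondary antibody after the anti-RUNX1 primary, read as scanned spot fluorescence.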
# Chain of UniProt Q01196 (Q01196 whole entry): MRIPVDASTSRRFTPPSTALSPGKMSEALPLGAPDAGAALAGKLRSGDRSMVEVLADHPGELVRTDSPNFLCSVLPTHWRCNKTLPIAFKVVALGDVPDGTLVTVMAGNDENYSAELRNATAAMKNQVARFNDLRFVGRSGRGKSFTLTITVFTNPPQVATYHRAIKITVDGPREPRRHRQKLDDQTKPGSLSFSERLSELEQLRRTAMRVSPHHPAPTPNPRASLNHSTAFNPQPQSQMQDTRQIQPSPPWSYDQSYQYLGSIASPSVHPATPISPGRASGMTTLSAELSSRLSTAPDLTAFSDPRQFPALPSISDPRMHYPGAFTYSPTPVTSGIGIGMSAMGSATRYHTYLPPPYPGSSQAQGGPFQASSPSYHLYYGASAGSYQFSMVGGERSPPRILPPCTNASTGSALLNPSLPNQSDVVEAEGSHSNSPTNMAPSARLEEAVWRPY
row,Sequence,RUNX1 binding intensity
1,GAGCTGCAAGCCACAAAGACCGAAAGTGCGCGTACG,721
2,AGCACGCCGGGAACTGGAGTCTCAGGTGGTTTTTAA,733
3,CAGCTTTCCAGCCTGCAGCACAGGCAATGTGGTTTT,1010
4,CCTTCCCCTGTCGGAGAGCCCACCGCTGGGTCCTAA,950
5,GGGGGCGGCAGTTTCGGTGCATTGTGGGTTCTCCTG,775
6,TGCTGGCTGCGGCCCTTGCCGTTGCTTTCAGGCGCA,704
7,ACTCCAGAGGAGGTGGCAAGACGAGCGCGGTAACGG,733
8,TGCCTTCTGGGAATTCGGGCGCTCTGCGGCTGTGAC,722
9,CTGTTAGTGGTTTGAATCTCACACCCTGTAATGGTT,948
10,TTTAATTCTGTGGTTAGAAGTAAAAGGACGTAAAGG,3370
11,CCTTCAGGCCGCAGCGCGGGGCACGCCGGGGAGCGC,737
12,CGGGCAGACTGCGGCCCTGGACGGGAATCGGCGGCC,643
13,TGCACTCCAGTTCCCCTCGCCCGCAGTGAGCAGTCA,816
14,GGCCCATGAAAGAGGCAGGGGTGCGGTTTCCCTCCG,1000
15,GAGAAGGGTGCGGTCTAGGGAGGAGGAGGTGCAGGT,1180
16,GTGCGCCTGCGGCGGCGACGAAACCGTAAGACAAGC,689
17,CCGCTTTTTGTGGGCCGGGTGGGTTACCTAATCTGG,842
18,GCCACCGCGCCCGGCCAAGCCTTTACGTCCTTTTAC,928
19,CGCCGCGGCGTATGGAGGTGCCCAGGGCCACAGACC,752
20,CGGAGGCCGCTTGCGGGCTCCCGGAGGCGGCGCCCT,616
21,AGGTTCAGGGGCTACACCCAGCCCAGGCCGCAGGCA,798
22,AGATTCTAGGCAGTGTCTGTAGCCGCAGCTGAGGGT,736
23,CTCTGCTTCATGTCTTTGAATGCCTCTGTGGTTTTC,1340
24,AACACCACCTCCTACTGTGAAACCACACTGTATTTG,1180
25,GCAAAGATACGTCCTTCTCCCCACAGACTAAGTTTC,974

row,Sequence,RUNX1 binding intensity
1,CTTCGCGGTGACGGGGAACTACATGTCCCAGAAGGC,844
2,TCGCACTGTCTGTGGTTCTCTCCTTCATGTCAGCTG,1110
3,CCCGTTCTCTGGAAGTGCGCGGGTTGGAGCTGAAGC,751
4,CGTCGCTGCGGTCCCTGCCGCCGAAACCATTAAGGA,950
5,ACAGCGCTGACCGCGGAGGTCCAACCGTAAGAATGT,1300
6,GTGTGGTCAGATACAGCCCAGCCACATGAAGAGGCA,727
7,ATCTTACGTAGCAGTCAGGTGTTTTGTGGTTTGCAG,1330
8,GCTGCGCTTCTGCGGGATAGACTTTCGGCCGCCGGC,788
9,GTGCCTCACCGCTCCCGGCGCTGCGGGATGACGTCA,760
10,CTGCCCAGCCACTGCCTGCCCAACCACAGACTGACA,1260
11,CCCCTCCGCGTGGGTTGCACCTGCTAACCACAGAGC,1010
12,CAGACCCGGCGTGGACGAAGCTCGGGAACCACAACA,784
13,TGGGTTGACCTAGCCACAGGCAGGATCTGGCTGCCA,654
14,GCTTCAGGCTTACGGGGCGCACACTGCCGCAAAGGC,706
15,AAACCAGAGAAGAAGTGGCACCACATGGCCAGACTG,773
16,TATCATTTTTACCACAGAGGTACAGGCAATTGTTTC,1710
17,GGGTCTCCAGCAAGGTTGGAGCTGAACCCGCGCTGC,624
18,CCGTACTTTCGCTTTACTCAGATTTTGGACCGCGGG,1320
19,TGTAGAGGAGGTGGTTTCCATCACGCAAGGCCGAAG,766
20,CCTGACTCTGGGTCTCCTCCCAGCCACAGACACCTG,1000
21,AGAGCAACACGATGCAAATAACCACAAGCAAGAATA,1210
22,AGCCTCTTGCTGCTCCTGATCAGCGGTTATCTTGCT,731
23,TGGTTGCCGGGCTGGGGTTAGAATAGGCCACAAGGT,699
24,TTGGTTGTGTGGTCGCGTCTCGGCAACCGGTAGCGC,757
25,CTCGCCCCATCTCCCGTAAATATCAGCCACAGACCA,1410

row,Sequence,RUNX1 binding intensity
1,TGCTTACGGCTTGCAGGGAATAACTTGTGGTTTCCA,903
2,GGCTTGCGCCTGCCGAGCGGCCCCGGACCGCAGGCC,746
3,GACGCATAAACATGAAGGCCTGCGGGAGGGCCCGCC,696
4,ACCTCCGCTGACCACCCTGCAGGCGCAAGAACGGCC,1090
5,TGTATAACGTCCTCATGTTCTGTGGGTGAGTTGAGC,753
6,CTGAAGCCACAAAATGACGTCACTTTGCTGCTTTCT,782
7,AAACAAAGTCAAACCACAGCACTTCATGCATTCTGG,873
8,CCGGGTGGCCACAAACATCACCCGTAAGCCTGAATA,871
9,TTGGGATTGTACCACACAAAGCACTTGCTGCACTGC,754
10,CTGGTAAGGGAGCTGGCCAAAACCCACTGAAACCAA,777
11,TGGCATGATGCCGTTAAATATGTAACCACATGTCTC,872
12,AAGCACATGTGGTGGGGCTCTTGCGTGCTGGCCACA,605
13,AGGCTTTCTGTTTTATCTCGTGTGTGTGGTGCACCA,886
14,TGCACACCGCGCCGGGGTAGGAACGTCCTCCCACCT,809
15,CGGTGTGAGGTGTGGCTTTGTCTTCATGAGCGGTGT,773
16,GCATGCCCGACCGCACCCGCGGACTGGACCTACTTT,1260 ± 160
17,GCCTGGCCGCAGCTGCTGCTGAGCGAAAGTCTCTGA,752
18,CCAGGCGCAAGCGGCCGGGAGTAGCGCTGCGGTTGG,701
19,GAGGAAAGGCAGTCAAGGCCAGGGCCGCAGAGGCCA,753
20,GGGGACGAAGCGGTCTCGGTTCAGCCCGGCTGGGAG,692
21,GCCTTGCGGCGCAGGCCGCTCCCGTATGTGTGCCTG,924
22,CTGCGCCTCCGCGGCGCCGCTCTGACCGCGCGAGGG,723
23,TATTCTTGCTTGTGGTTATTTGCATCGTGTTGCTCT,3110
24,GCCAAGAGGGAGACCGCGTGCCTTTCGTGCAGCCGA,762
25,AGGAGTGTCACCTCCTCTTTCCTCACCACAGCCTCC,1260

row,Sequence,RUNX1 binding intensity
1,TGTGTGGGTTTCTGGACTATGGGGCTCCCTGGAAGT,703
2,TGGAAGCGGCTTACGGGGTGAATGCGGTTGGATCGT,896
3,TCTGTCGCACATACGGTGTGAGCTGCGGGGCGGTGG,787
4,CGGGACCGCGGGCGGACTCAGCCCAGCAAGCGGCAG,764
5,AGAGCGAGGCTGCGGGACCCCAGGCTGGGGGACAGG,727
6,GGGCAGGTGCTGCCTTCTCTCAGAAACCACTCCTCC,716
7,GTGCAGGGCCCGGGAGCTCAGTGTGGTTAAAGACAT,770
8,AAAGCCAACCACCAACCGAGAGCGAAAGTCGGGGAC,827
9,GCTTTGCAGTGTCCTCTATGGAACACCACACACAGT,809
10,CACCTCTCAGCAAGGACCGAGCCCGCAAGTCCCTCA,1050
11,TCCTCCATGCAGCAAAACCTCTGTGGTCTGGGAGCT,886
12,ATAACTTGCGGCAAATGCTGGAGGCAGTACCGCCTT,840
13,AAGTGAGCCATGTGGGTACGTGCGCAAGAATATTCA,776
14,AGGTCCCGGCGAAAGTGACCGAAAGTAACCGCCGGG,793
15,CCGCTGAGCCTTCGGCCCAGGCCACCCGCACTCAGC,680
16,GAATGCGGGGGTGGGCACCCTATTCTCACCTCCCCT,914
17,TCATAAGGCAGTGGAGTGTAGTAACCACAGGCCCCG,893
18,CCGTGGATGGAGACGCTGCCAACCGCAACAGAAATG,2340
19,GAAGTGGACACGGGACTCGGCTGCGGCTCCATGGTC,764
20,GGGGCCTGTGGTGAACTGGAGAGGAGATGCTGCATT,784
21,CCCCAGCGGTTTTCCAGCGTACGCACAAGTGCCGCC,982
22,CAACTCCCGGGGCCGGTTGCCTGGCAACCGCAGGAG,1000
23,GGCGGCGGGCTGCGGGCGCGGCCGTACGGGAGTTCG,859
24,CCTAAAACCCAGTTTCGGGACCCACCGCTGAAGGTC,824
25,TCTGCGGGACTAAGAGGCGGGGAAAGGGAGCGAAAG,731

row,Sequence,RUNX1 binding intensity
1,ACAGTGTCCTTGCTGTGATGTCAGCCCCCGCCGCAG,719
2,AGAGGCAGTAAATTCTAACAGTGGAAACCACAGATT,855
3,CTCACCGCAGGCCTGTGCTGGGGGTGCTCCCTGCTC,3770
4,GTGTGAAGGCAGTGTGAGATCAAACCACAGCTGGGT,815
5,GGCCTGCGGCTGCTTCAGGCTCTCGGGAATGACGTT,629
6,TGACGGTTACCGCTTCAGGTCAGGACCGGGAGTGCC,677
7,ATGTTCTTTGTGGTATCGCTTCGTGTGTCCTAGCAC,2770
8,ACCATAAGGACCGTAAGCAGAGACCACACTGGTGCT,816
9,CCATAGCGACCGCGGCCGAGCGAACCGGGAATCGGC,791
10,CTGCGTCCCGAAAGGAGCGAGCTTGCGGAGCGTGAA,718
11,ACGTCATCCCGCAGGGCTGGCGCGCCCGGCGCAGTC,779
12,CTGTCAGCCCCGCAGCCCCTGCTCCCTGGCTGGCTG,805
13,GGTGAAATTAACCACAGAAATAATGGGAACTAGAGA,4660
14,TAACCCTGTTTTACCACATCATTTCGTGCTGAAGAG,1280
15,AAAGGCCGAAGGGGGGCAGGGAACCCACAAAACAGA,877
16,GCCTGGTACCACTAAAAAGATCAACACCGGGAATAA,863
17,AGGCAAACAGCATGTTCCTCTCCCACATGCAGACTT,755
18,GCTTTCTGTGGTGACTGGGCGCTTTCTGTTTTCTCA,1100
19,ACCCCCACCCCCGCATTCTTGTGCGAGGAGGTCATG,757
20,TGCACCTCCGTTTGGGCAGGGCTGCGGGCCGGAGGG,683
21,CAGATTCAAGCAAGTGGTGGTGGTTTGGTGTCGTTG,775
22,AGGTCTGTGTGTGCCACAGAGAGGAGGGGGGCAACC,824
23,CGACCCGGGGATCTGAGCGGAGTCTGCGGCTGCGCT,702
24,GCAGTTCATACCACAAAACCCATCGTTTCGTGCAAC,1500
25,CCTGTCCCCCAGCCTGGGGTCCCGCAGCCTCGCTCT,873
